Assay results taken from PubChem BioAssay AID1362 (SRMLSC, 2008).
This is one part of the list. Shown are side measurements of this screen, not its main read-out; they come without a call. The list favours compounds with an active or inconclusive main result.

Experiment: growth inhibition of WT strain, primary screen, mitochondrial fusion inhibitor project, WT and mutant strains, chemical genetic (AID 1362); further: tested in S. cerevisiae
Details: mitochondrial fusion phenotypic screen, at 10 µM
Molecule O=S(Cc1ccc(Br)cc1)Cc1nnc(SCc2c(F)cccc2Cl)n1-c1ccccc1 (stereo not given) has an inhibition of -6.26%. With Cc1cccc(OCCCSc2nc3ccc(C)cc3[nH]2)c1 the inhibition was 48.4%. Molecule CCN1CCN(CCNC(=O)c2ccc(/C=C3\Sc4ccccc4N(Cc4ccccc4F)C3=O)cc2)CC1 has an inhibition of 8.53%. CCOc1ccc(Nc2nc(N3CCCCC3)nc(N3CCCCC3)n2)cc1 gave an inhibition of 21.4%. In the case of Clc1ccc(Oc2cccc(/C=N/n3cnnc3)c2)cc1, the inhibition was 54.3%. With COc1ccccc1CNC(=S)NCCc1ccccc1 the inhibition was 57.7%. In the case of CCOC(=O)/C(=C\c1cccnc1)C(=O)c1cc(C(C)=O)c(Nc2ccccc2)s1, the inhibition was 33.8%. CC(=O)c1ccc(NC(=S)NC(C)c2ccc(Cl)cc2Cl)cc1 (stereo not given) showed an inhibition of 78.9%. Work on Cc1nc(NC(C)c2ccccc2)c2oc3ccccc3c2n1 (stereo not given) yielded an inhibition of 56.2%. Molecule CCC1=NN2C(=N)/C(=C\c3cccn3-c3ccc(C)cc3C)C(=O)N=C2S1 has an inhibition of 16.1%. O=C(NC(=S)NCCC1=CCCCC1)c1ccccc1Br showed an inhibition of 3.54%. CCCCCOc1ccc(CSc2n[nH]c(C)n2)cc1 gave an inhibition of 78.3%. For O=C(Cc1cn(Cc2cccc(Cl)c2)c2ccccc12)N1CCCCCC1, the inhibition was 22.8%. Molecule Cc1cc2c3c(c1)C1(SCC(=O)N1c1ccc(F)cc1)C(=O)N3C(C)(C)CC2C (stereo not given) has an inhibition of 10.1%. C/C(=N\NC(=S)NCc1ccccc1)c1ccc(C(C)(C)C)cc1 showed an inhibition of 39.2%. For CCC1C(c2ccccc2)N(C)C(c2ccccc2)CC1(O)c1ccccc1 (stereo not given), the inhibition was 64.5%. For COC(=O)c1c(NC(NC(=O)C(C)C)C(Cl)(Cl)Cl)sc2c1CCCC2 (stereo not given), the inhibition was 58.7%. Molecule Cc1cc(C)c2nc(NNC(=O)c3cc(-c4cccs4)nc4ccccc34)sc2c1 has an inhibition of 46.6%. With O=C(NC(=S)Nc1ccc(Cl)cn1)C(c1ccccc1)c1ccccc1 the inhibition was 67.1%. In the case of CC1=CC(C)(C)N(S(=O)(=O)c2ccc(C)cc2)c2ccc(C)cc21, the inhibition was 15%. O=C(OC(c1ccc(NS(=O)(=O)c2ccccc2)cc1)(C(F)(F)F)C(F)(F)F)c1ccccc1 showed an inhibition of -9.15%. Cn1c(Cc2ccccc2)nnc1SCC(=O)c1ccc(Br)s1 showed an inhibition of 6.12%. O=C(COc1ccccc1-c1ccccc1)NCc1cccc(Cl)c1 gave an inhibition of 24.9%. For COc1ccc(S(=O)(=O)NCCSCc2cccc(C)c2)cc1Br, the inhibition was 18.9%. For COc1ccccc1Nc1ncnc2nc[nH]c12, the inhibition was 9.22%. S=c1nc2ccccc2c2nc(-c3ccccc3)[nH]n12 showed an inhibition of 67%. With Cc1ccccc1CSCCNC(=S)Nc1ccccc1 the inhibition was 66.7%. For O=c1[nH]c(-c2ccccn2)nc2sc(-c3ccccc3)cc12, the inhibition was 64.7%. Cc1cccc(NC(=S)N/N=C2/CCCCc3ccccc32)c1 showed an inhibition of 51.9%. Work on CCOC(=O)N1CCN(C(=O)CN(C)S(=O)(=O)c2ccc3c(c2)C(C)(C)C(=O)N3C)CC1 yielded an inhibition of -0.52%. With Cc1ccc(Nc2nc(N)c([N+](=O)[O-])c(N3CCC(C)CC3)n2)cc1C the inhibition was 67.7%. In the case of Cc1ccc2nc(N(CCCN(C)C)C(=O)c3ccc(Br)s3)sc2c1, the inhibition was 88.6%. In the case of CC(C)Cn1c(-c2csc(C(C)C)c2)n[nH]c1=S, the inhibition was 48.3%. With NC(=S)n1[nH]c(-c2ccc([N+](=O)[O-])cc2)c(N=Nc2cccc(Cl)c2)c1=O the inhibition was 29.8%. Work on Nc1ccccc1Nc1cc(-c2cccc(Cl)c2)nn1-c1ccccc1 yielded an inhibition of 27.3%. O=C(NC1=C(Nc2ccc(Cl)cc2)C(=O)c2ccccc2C1=O)c1ccccc1 gave an inhibition of 61.1%. Molecule c1ccc(Cn2c(CNc3nc4ccccc4n3CCN3CCCCC3)nc3ccccc32)cc1 has an inhibition of 8.83%. Work on CC(C)(C)n1nnnc1C(c1cccs1)N(Cc1cccnc1)Cc1ccccc1Cl (stereo not given) yielded an inhibition of -2.11%. Molecule COc1ccc(C2CC(c3cccs3)=NN2C(=O)c2ccc(Br)o2)cc1 (stereo not given) has an inhibition of 41.4%. With COc1ccc(C(C)=O)cc1CSc1nc2ccccc2c(=O)n1-c1cccc(C)c1 the inhibition was 31.8%. In the case of S=c1nc[nH]c2c1sc1nc(-c3ccccc3)c3c(c12)CCCC3, the inhibition was 93.3%. Nc1ccc2nn(-c3ccccc3)nc2c1 showed an inhibition of 5.2%. CC1(C)CC2CC(C)(CN2C(=O)c2cc(-c3ccccc3O)on2)C1 (stereo not given) showed an inhibition of 40.1%. Clc1ccc(N/N=C/c2cccnc2)cc1 showed an inhibition of 56.7%. In the case of Cc1coc(C)c1C(=O)CC1(O)C(=O)Nc2cc(Cl)cc(Cl)c21 (stereo not given), the inhibition was 4.65%. CCCN1C(=O)c2ccccc2NC1c1ccc(OC)c(CSc2ccccn2)c1 (stereo not given) gave an inhibition of 27.5%. Molecule Cc1ncsc1C(=O)Nc1nc2c(s1)CC(C)CC2 (stereo not given) has an inhibition of -8.69%. For Cc1ccc(-n2cccc2C(=S)N=P(N(C)C)(N(C)C)N(C)C)cc1, the inhibition was 6.13%. Molecule CC1CCCCC1NC(=S)Nc1ccc(SC(F)F)cc1 (stereo not given) has an inhibition of 29.6%. Work on CC1CCN(c2nc(Cl)nc(Nc3ccc([N+](=O)[O-])cc3)n2)CC1 yielded an inhibition of 9.32%. In the case of O=C(NC(=S)N1CCN(Cc2ccc3c(c2)OCO3)CC1)c1ccc(Cl)cc1, the inhibition was 38.5%. Cc1cc(C(=O)N2CCc3c([nH]c4ccccc34)C2c2cccc(Cl)c2)nn1C (stereo not given) showed an inhibition of 47.5%. Molecule CCOC(=O)c1c(-c2cccs2)csc1NC(=O)C(C)(C)C has an inhibition of -1.72%. Molecule CCOC(=O)C1CCN(S(=O)(=O)c2c(C)n[nH]c2C)CC1 has an inhibition of 0%. For COc1cc(NC(=O)c2ccc(C(C)(C)C)cc2)c(OC)cc1NC(=O)CN1CCCCC1, the inhibition was 64.6%.
